According to patent US20260016473A1 (priority 2022, published 2026):
Where two headings read alike, the source gives them in different places.

Columns and labels:
[1] = biological target: T1, Trimeric SARS-CoV-2 Spike Protein, Full-length (Severe acute respiratory syndrome coronavirus 2, UniProt P0DTC2); type: biochemical
[2] = biological target: T1, Trimeric SARS-CoV-2 Spike Protein, Full-length; type: biochemical; remark: listed apart in the source

CCC(C)c1nc2c(CCCNC(=N)N)[nH]c(-c3ccc(N(CC)CC)cc3)cn-2c1=O (stereo not drawn) [CLA20, 1-(3-(2-(sec-butyl)-6-(4-(diethylamino)phenyl)-3-oxo-3,7-dihydroimidazo[1,2-a]pyrazin-8-yl)propyl)guanidine]
S/N ratio ([1]; n=3): 10.6

O=c1c(Cc2ccccc2)nc2c[nH]c(-c3c[nH]c4ccccc34)cn1-2 [CLA1, 2-benzyl-6-(1H-indol-3-yl)imidazo[1,2-a]pyrazin-3(7H)-one]
S/N ratio ([1]; n=3): 6.63

CN(C)c1ccc(-c2cn3c(=O)c(Cc4ccccc4)nc-3c[nH]2)cc1 [CLA7, 2-benzyl-6-(4-(dimethylamino)phenyl)imidazo[1,2-a]pyrazin-3(7H)-one]
S/N ratio ([1]; n=3): 5.15

CCN(CC)c1ccc(-c2cn3c(=O)c(Cc4ccccc4)nc-3c(CCc3ccncc3)[nH]2)cc1 [CLA18, 2-benzyl-6-(4-(diethylamino)phenyl)-8-(2-(pyridin-4-yl)ethyl)imidazo[1,2-a]pyrazin-3(7H)-one]
S/N ratio ([1]; n=3): 4.46

O=c1c(Cc2ccccc2)nc2c[nH]c(-c3c[nH]c4ncccc34)cn1-2 [CLA9, 2-benzyl-6-(1H-pyrrolo[2,3-b]pyridin-3-yl)imidazo[1,2-a]pyrazin-3(7H)-one]
S/N ratio ([1]; n=3): 4.05

CCN(CC)c1ccc(-c2cn3c(=O)c(C)nc-3c(CCCNC(=N)N)[nH]2)cc1 [CLA13, 1-(3-(6-(4-(diethylamino)phenyl)-2-methyl-3-oxo-3,7-dihydroimidazo[1,2-a]pyrazin-8-yl)propyl)guanidine]
S/N ratio ([1]; n=3): 5.12

CCN(CC)c1ccc(-c2cn3c(=O)c(Cc4ccccc4)nc-3c[nH]2)cc1 [CLA3, 2-benzyl-6-(4-(diethylamino)phenyl)imidazo[1,2-a]pyrazin-3(7H)-one]
S/N ratio ([1]; n=3): 6.77

CCN(CC)c1ccc(-c2cn3c(=O)c(C)nc-3c[nH]2)cc1 [CLA4, 6-(4-(diethylamino)phenyl)-2-methylimidazo[1,2-a]pyrazin-3(7H)-one]
S/N ratio ([1]; n=3): 6.87

Cc1nc2c[nH]c(-c3c[nH]c4ccccc34)cn-2c1=O [CLA2, 6-(1H-indol-3-yl)-2-methylimidazo[1,2-a]pyrazin-3(7H)-one]
S/N ratio ([1]; n=3): 5.81

CCC(C)c1nc2c[nH]c(-c3ccc(N(CC)CC)cc3)cn-2c1=O (stereo not drawn) [CLA21, 2-(sec-butyl)-6-(4-(diethylamino)phenyl)imidazo[1,2-a]pyrazin-3(7H)-one]
S/N ratio ([1]; n=3): 7.06

CCN(CC)c1ccc(-c2cn3c(=O)c(Cc4ccccc4)nc-3c(CCCNC(=N)N)[nH]2)cc1 [CLA12, 1-(3-(2-benzyl-6-(4-(diethylamino)phenyl)-3-oxo-3,7-dihydroimidazo[1,2-a]pyrazin-8-yl)propyl)guanidine]
S/N ratio ([1]; n=3): 6.33

O=c1c(Cc2ccccc2)nc2c[nH]c(-c3ccc(N4CCCC4)cc3)cn1-2 [CLA10, 2-benzyl-6-(4-(pyrrolidin-1-yl)phenyl)imidazo[1,2-a]pyrazin-3(7H)-one]
S/N ratio ([1]; n=3): 6.76

Cc1nc2c[nH]c(-c3ccc(N(C)C)cc3)cn-2c1=O [CLA8, 6-(4-(dimethylamino)phenyl)-2-methylimidazo[1,2-a]pyrazin-3(7H)-one]
S/N ratio ([1]; n=3): 4.04

N=C(N)NCCCc1[nH]c(-c2c[nH]c3ccccc23)cn2c(=O)c(Cc3ccc(O)cc3)nc1-2 [CLA15, 1-(3-(2-(4-hydroxybenzyl)-6-(1H-indol-3-yl)-3-oxo-3,7-dihydroimidazo[1,2-a]pyrazin-8-yl)propyl)guanidine]
S/N ratio ([1]; n=3): 15.9

O=c1c(Cc2ccccc2)nc2c(CCc3ccncc3)[nH]c(-c3ccc(N(c4ccccc4)c4ccccc4)cc3)cn1-2 [CLA17, 2-benzyl-6-(4-(diphenylamino)phenyl)-8-(2-(pyridin-4-yl)ethyl)imidazo[1,2-a]pyrazin-3(7H)-one]
S/N ratio ([1]; n=3): 1.95

CCN(CC)c1ccc(-c2cn3c(=O)c(Cc4ccc(O)cc4)nc-3c(CCCNC(=N)N)[nH]2)cc1 [CLA14, 1-(3-(6-(4-(diethylamino)phenyl)-2-(4-hydroxybenzyl)-3-oxo-3,7-dihydroimidazo[1,2-a]pyrazin-8-yl)propyl)guanidine]
S/N ratio ([1]; n=3): 8.22

CCC(C)c1nc2c(CCCNC(=N)N)[nH]c(-c3c[nH]c4ccccc34)cn-2c1=O (stereo not drawn) [Cypridina Luciferin]
S/N ratio ([1]; pH 7.4): 28.1 | dependence of luminescence intensity on spike protein concentration [2]: depends on the concentration of the virus spike protein
